Laboratory results published in PubChem BioAssay AID1745853 (National Center for Advancing Translational Sciences (NCATS), 2022).
The other results are listed elsewhere or left out. Further columns of the screen follow, without active or inactive calls.

What was measured:
Assay in all cases: Primary Screen for Target Class Profiling of Small Molecule Inhibitors of Methyltransferases
[1] = molecular target: Glycine N-methyltransferase (Homo sapiens) (UniProt Q14749); conditions: purified enzyme, MTase-Glo SAH luminescence; measured here: GNMT inhibition; at 40 µM; stronger effect = lower value
Summary of the method: (§1)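 Each enzyme was assayed with SAM and its substrate. SAH formation detected by MTase-Glo luminescence; single-point 40 uM screen[…].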

[2] = molecular target: Guanidinoacetate N-methyltransferase (Homo sapiens) (UniProt Q14353); conditions: purified enzyme, MTase-Glo SAH luminescence; measured here: GAMT inhibition; at 40 µM; stronger effect = lower value
Summary of the method: as §1

[3] = molecular target: Histamine N-methyltransferase (Homo sapiens) (UniProt P50135); conditions: purified enzyme, MTase-Glo SAH luminescence; measured here: HNMT inhibition; at 40 µM; stronger effect = lower value
Summary of the method: as §1

[4] = molecular target: Nicotinamide N-methyltransferase (Homo sapiens) (UniProt P40261); conditions: purified enzyme, MTase-Glo SAH luminescence; measured here: NNMT inhibition; at 40 µM; stronger effect = lower value
Summary of the method: as §1

[5] = molecular target: Phenylethanolamine N-methyltransferase (Homo sapiens) (UniProt P11086); conditions: purified enzyme, MTase-Glo SAH luminescence; measured here: PNMT inhibition; at 40 µM; stronger effect = lower value
Summary of the method: as §1
% is scaled to controls: 0 for no effect and ±100 for the full control effect.

Compound | activity change, negative = inhibition [1] [%] | activity change, negative = inhibition [2] [%] | activity change, negative = inhibition [3] [%] | activity change, negative = inhibition [4] [%] | activity change, negative = inhibition [5] [%]
Cc1noc(C)c1S(=O)(=O)N1C[C@@H](C(=O)O)[C@H](c2ccccn2)C1 | -4.33 | -6.85 | -1.75 | -6.63 | 3.03
CCOC(=O)c1cc2n(n1)CC(C)(C(=O)NCc1ccc(C)cc1)N(CCCc1ccccc1)C2=O (stereo unspecified) | 7.86 | 2.33 | 10.4 | 2.91 | 3.77
CCCn1c(=O)c2ccc(Cl)cc2n2c(=O)n(Cc3cccc(C)c3)nc12 | -2.23 | 2.44 | 3.12 | -1.78 | 0.977
C[C@H]1[C@H](C)CC[C@]2(C(=O)O)CC[C@]3(C)C(=CC[C@@H]4[C@@]5(C)C[C@@H](O)[C@H](O)[C@@](C)(CO)[C@@H]5CC[C@]43C)[C@H]12 | -1.39 | 3.65 | 8.68 | -6.51 | 4.41
CC(CCc1ccccn1)(CCc1ccccn1)C(=O)c1ccccc1 |  | 7.43 |  | -6.04 | -0.114
COC(=O)c1cc2n(n1)CC(C)(C(=O)NC1CCCCCC1)N(Cc1ccccc1OC)C2=O (stereo unspecified) | -6.97 | -1.31 | -9.35 | -15.2 | -2.64
Cc1ccc(N2C(=O)c3ccc(-c4ccco4)n3CC2(C)C(=O)NCc2ccc(Cl)cc2)c(C)c1 (stereo unspecified) | -1.75 | 2.35 | 1.22 | 4.3 | -1.61
CCCn1c(=O)c2ccc(C(=O)NC(C)C)cc2n2c(=O)n(CC(=O)Nc3cccc(C)c3)nc12 | 5.63 | 3.71 | 1.59 | 0.67 | 2.48
COc1cccc(CCC(=O)N2CCC3(CC2)NC(=O)N(c2cccc(F)c2)N3)c1 | -4.37 | -2.18 | -1.29 | -5.56 | 2.7
CC1CCN(S(=O)(=O)c2ccc3c(ccn3CCC(=O)NCCc3cccs3)c2)CC1 | -2.26 | -0.884 | -2.69 | -7.73 | -5.36
CC1CCC/C=C/C(=O)c2c(O)cc(O)cc2CC(=O)O1 (stereo unspecified) | -1.44 | -5.43 | 6.19 | -9.72 | -5.57
Cc1ccc(NC(=O)Cn2nc3n(C)c(=O)c4ccc(C(=O)NC5CCCC5)cc4n3c2=O)cc1F | -0.099 | 0 | 0.238 | 0.875 | 0.275
COc1ccc(CN2CCn3c(nnc3C3CCCNC3)C2)cc1 (stereo unspecified) | -7.54 | -8.75 | -4.61 | -13.6 | -8.27
CCC(C)NC(=O)c1ccc2c(=O)nc3c(-c4cccc(F)c4)n[nH]n3c2c1 (stereo unspecified) | 1.33 | 1.91 | 2.91 | 2.89 | 0.008
CC1(C(=O)NCc2ccccc2)Cn2c(cc3ccccc32)C(=O)N1Cc1ccccc1Cl (stereo unspecified) | 2.92 | 0.601 | 3.6 | 1.81 | -3.23
c1ccc(C2(c3ccccc3)CCCN(Cc3cscn3)C2)cc1 | -5.46 | -5.59 | -4.1 | -8.89 | -0.834
CC(C)OCCCn1c(=O)c2ccccc2n2c(=O)n(Cc3cccc(Cl)c3)nc12 | -1.67 | 0 | 8.34 | -26.9 | 0.533
O=C1CN(Cc2ccc(Br)cc2)S(=O)(=O)c2ccccc2N1Cc1ccccc1F | 6.2 | 5.9 | 0.861 | 0.62 | -0.33
COc1ccccc1CCNC(=O)Cn1ccc2cc(S(=O)(=O)N3CCCCC3)ccc21 | 5.3 | 0 | 3.33 | 8.03 | 5.42
O=S(=O)(NCCn1c(-c2ccncc2)nc2ccccc21)c1ccc(Cl)cc1 | -5.23 | 0 | 3.2 | -1.09 | 4.4

Compound | activity change, negative = inhibition [1] [%] | activity change, negative = inhibition [2] [%] | activity change, negative = inhibition [3] [%] | activity change, negative = inhibition [4] [%] | activity change, negative = inhibition [5] [%]
CCCc1nc(CC)n2cc[nH]c(=O)c12 | -4.09 | -2.44 | -3.11 | -11.1 | 13.1
CCn1ccc(C(=O)N2C[C@@H]3CCCN4CCC[C@@H]([C@H]34)[C@H]2CCCC(=O)NCC2CC2)n1 | -7.69 | -13.2 | -4.77 | -19 | -11.1
COCCn1c(C)nnc1-c1cc(-c2ccc(OC)c(OC)c2)ccn1 | -14.2 | -13.3 | -9.77 | -20.4 | -13.6
CC1(C(=O)NC2CCCC2)Cn2c(ccc2-c2ccco2)C(=O)N1Cc1ccccc1Cl (stereo unspecified) | -3.79 | 1.97 | -1.85 | -8.78 | -2.51
COCCn1c(C)cnc1CCNS(=O)(=O)Cc1ccccc1F | -3.05 | -2.45 | -0.891 | -5.94 | -16.5
Cc1ccc(Cn2c(=O)c3ccccc3n3c(CCC(=O)NCC(C)c4ccccc4)nnc23)cc1 (stereo unspecified) | -10.2 | 0 | 2.56 | -29.5 | -0.983
O=C(O)CCC(=O)N1CC[C@@H]2[C@H]1C(=O)N(c1ccc(F)c(Cl)c1)C(=O)N2Cc1ccccc1 | -1.86 | 2.56 | 0.88 | 2.72 | 7.88
Cc1ccc(C2(C(=O)N3C[C@@H](CN4CCCCC4)[C@@H](CO)C3)CC2)cc1 | -8.65 | -14.4 | -13.9 | -8 | -6.28
COc1ccc2nc3n[nH]c(C)c3c(NCCOCCO)c2c1 | -69.2 | -49.5 | -80.6 | -54.8 | -64.6
Cc1ccc(C)c(NS(=O)(=O)c2cc(C(=O)Nc3ccccc3-c3ccccc3)ccc2C)c1 | 4.04 | -10.7 | 8.21 | -24.4 | -9.75
CC(C)CCn1c(=O)c2ccc(C(=O)NC3CCCC3)cc2n2c(=O)n(Cc3cccc(F)c3)nc12 | 3.72 | 0 | 5.28 | 3.66 | 5.36
COC(=O)[C@@H]1Cc2nc[nH]c2CN1C1CCOCC1 | -3.69 | -7.47 | -2.51 | -10 | -9.21
CC1(C)CC2C3=CCC4[C@@]5(C)CC[C@H](OC6OCC(O)C(OC7OC(CO)C(O)C(O)C7O)C6O)C(C)(C)C5CC[C@@]4(C)[C@]3(C)C[C@H](O)[C@@]2(CO)[C@H](OC(=O)c2ccccc2)C1 (stereo partly specified) | -2.35 | 2.72 | 5.82 | -14.4 | -11.6
CC(C)OCCCn1c(=O)c2cc(Cl)ccc2n2c(SCc3ccc(Cl)cc3)nnc12 | 3.9 | 0 | 6.23 | -1.54 | 0.073
CC1(C(=O)NC2CCCCCC2)Cn2c(cc3sccc32)C(=O)N1CCc1ccc(Cl)cc1 (stereo unspecified) | 1.9 | 2.52 | 4.46 | -3.27 | -0.238
c1cc(-c2n[nH]c(CC3CCNC3)n2)ccn1 (stereo unspecified) | -5.95 | -9.09 | -5.92 | -10.6 | -12.9
CCC(C)N1CCN(C(=O)Cn2c(=O)oc3cc(S(=O)(=O)NCc4ccccc4)ccc32)CC1 (stereo unspecified) | 12.3 | 0.806 | -0.841 | -0.412 | 4.49
COc1cc2c(CCNC(C)=O)c[nH]c2cc1Cl | -6.16 | 13.5 | 10.9 | -2.42 | 5.16
COc1ccc(CN2C(=O)c3cc(-c4ccccc4)nn3CC2(C)C(=O)NCc2ccccc2)cc1OC (stereo unspecified) | 0.143 | 4.69 | 1.96 | -17.8 | -4.58
CC1(C(=O)NC2CCCCCC2)Cn2c(c(-n3cccc3)c3cc(F)ccc32)C(=O)N1Cc1cccc(F)c1 (stereo unspecified) | -2.95 | 4.82 | -0.779 | -0.581 | -3.83

Compound | activity change, negative = inhibition [1] [%] | activity change, negative = inhibition [2] [%] | activity change, negative = inhibition [3] [%] | activity change, negative = inhibition [4] [%] | activity change, negative = inhibition [5] [%]
COCCNC(=O)C1COC2(CCN(C(=O)C3CC3)CC2)N1C(=O)c1cccc(OC)c1 (stereo unspecified) | 0.761 | -2.65 | 2.54 | -5.18 | -3.48
Cn1cc(CN2C[C@@H]3C[C@H](C2)c2ccc(NS(=O)(=O)c4cccc(F)c4)c(=O)n2C3)c2ccccc21 | -10.7 | -5.76 | -16.9 | -10.6 | -7.58
Cc1cccc(COc2ccc3c(-c4ccccc4)cc(=O)oc3c2)c1 | -4.27 | 6.78 | -1.18 | 1.81 | -3.54
CC(C)CCn1c(=O)c2ccccc2n2c(CCC(=O)NCCc3ccc(Cl)cc3)nnc12 | 0.782 | 0 | 10.9 | 13 | 2.37
CN(C)[C@@H]1CN(Cc2ccc(C#N)cc2)C[C@H]1CO | -0.884 | 1.09 | -2.84 | -5.69 | 13.5
COCc1ccc(C(=O)N2CCCC(CCc3cccc(OC)c3)C2)o1 (stereo unspecified) | -6.18 | -3.64 | -0.745 | -9.17 | -18.9
COCC1(C(=O)N2CCN(C)C3(CCNC(=O)CC3)C2)CCC1 (stereo unspecified) | -3.07 | -3.48 | -1.44 | -3.64 | -2.46
COc1cccc(-c2ccccc2NC(=O)C2CCN(CC=C(C)C)CC2)c1 | -3.23 | -0.779 | -51.7 | -11.1 | -3.13
CC(C)c1ccc2c(c1)CCC1[C@](C)(C(=O)O)CCC[C@]21C (stereo partly specified) | -4.42 | 0.715 | 10.5 | -16.9 | 0.768
C=Cc1ccc(Cn2nc3n(Cc4ccccc4)c(=O)c4ccc(C(=O)NCC(C)C)cc4n3c2=O)cc1 | 5.21 | 0 | 9.75 | 5.31 | 8.5
CC1CCN(S(=O)(=O)c2ccc3c(c2)oc(=O)n3CC(=O)N2CC(C)CC(C)C2)CC1 (stereo unspecified) | -0.428 | 0 | 0.677 | -0.708 | -1.89
COc1cccc(OC)c1C(=O)N[C@@H]1C(=O)N2[C@@H]1SC(C)(C)[C@@H]2C(=O)O | -1.89 | -6.35 | 7.07 | -9.23 | 4.32
CCOC(=O)c1cc2n(n1)CC(C)(C(=O)NCc1ccccc1)N(Cc1cc(OC)ccc1OC)C2=O (stereo unspecified) | 0.355 | 2.57 | -5.25 | 1.47 | 1.38
Cc1ccc(S(=O)(=O)NC(=O)NN2CCCCCC2)cc1 | -9.75 | 2.18 | -1.17 | -5.71 | 6.34
CCN1C(=O)c2c(C(=O)NCc3ccccc3OC)ncn2CC1(C)C(=O)NC1CCCC1 (stereo unspecified) | -4.85 | -9.59 | 2.04 | -7.17 | -3.02
Cc1ccc(NC(=O)Cn2c(=O)c3ccc(Cl)cc3n3nncc23)cc1 | -6.64 | 0.738 | -4.83 | -12.4 | -7.15
CCN1C(=O)c2cc(C(=O)NCCCOC(C)C)nn2CC1(C)C(=O)NC1CCCC1 (stereo unspecified) | 7.92 | 0 | -2.73 | 11.4 | 5.38
O=C1NC(Nc2ccccc2)=N/C1=C\c1ccc2c(c1)OCO2 |  | -8.46 |  | -19.1 | -2
C=CCn1c(=O)c2ccc(C(=O)NCC(C)C)cc2n2c(=O)n(CC(=O)Nc3cccc(F)c3)nc12 | 2.29 | 0 | 1.63 | 1.43 | 2.77
Cc1ccc(S(=O)(=O)c2nnn3c2nc(NCc2ccc(F)cc2)c2ccccc23)cc1 | -9.81 | 5.67 | -4.71 | -7.13 | -10.2
